Reference: PubChem BioAssay AID504332 (National Center for Advancing Translational Sciences (NCATS), 2011)
About 31,000 (8.9%) of roughly 350,000 compounds were called active. Inconclusive results, whose numbers are uncertain, are shown with a selection of clear calls. The call rests on the fitted dose curve; in most records, active means well fitted inhibition curve with a large enough effect; inconclusive means small, poorly fitted or top-dose-only effect; inactive means no such curve, though single readings can be large or run the other way. A potency beside an inconclusive call is a rough fit, not a confirmed value. Some compounds were tested as several samples or in several runs, with calls that do not always agree.

Target: Histone-lysine N-methyltransferase EHMT2 (Homo sapiens) (UniProt Q96KQ7)
Assay: qHTS Assay for Inhibitors of Histone Lysine Methyltransferase G9a; further: nearly all actives have a fitted effect of over 75% in size
Conditions: G9a H3K9 monomethylation, AlphaScreen, 2 h; activity, negative = inhibition: at 59 µM (top of the series) unless noted
How it was run: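 G9a (20 nM) was preincubated 15 min with compound, then reacted 2 h at room temperature with 500 nM biotin-H3K9 peptide and 20 µM SAM. Monomethyl-H3K9 detected by AlphaScreen using anti-H3K9me1 antibody.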
On the % scale 0 is the no-effect control and ±100 the full control effect; potency means the concentration at half of the fitted maximal effect; tags describe the fitted curve by direction and shape.

Sequence of UniProt Q96KQ7 (Q96KQ7 whole entry, looked up): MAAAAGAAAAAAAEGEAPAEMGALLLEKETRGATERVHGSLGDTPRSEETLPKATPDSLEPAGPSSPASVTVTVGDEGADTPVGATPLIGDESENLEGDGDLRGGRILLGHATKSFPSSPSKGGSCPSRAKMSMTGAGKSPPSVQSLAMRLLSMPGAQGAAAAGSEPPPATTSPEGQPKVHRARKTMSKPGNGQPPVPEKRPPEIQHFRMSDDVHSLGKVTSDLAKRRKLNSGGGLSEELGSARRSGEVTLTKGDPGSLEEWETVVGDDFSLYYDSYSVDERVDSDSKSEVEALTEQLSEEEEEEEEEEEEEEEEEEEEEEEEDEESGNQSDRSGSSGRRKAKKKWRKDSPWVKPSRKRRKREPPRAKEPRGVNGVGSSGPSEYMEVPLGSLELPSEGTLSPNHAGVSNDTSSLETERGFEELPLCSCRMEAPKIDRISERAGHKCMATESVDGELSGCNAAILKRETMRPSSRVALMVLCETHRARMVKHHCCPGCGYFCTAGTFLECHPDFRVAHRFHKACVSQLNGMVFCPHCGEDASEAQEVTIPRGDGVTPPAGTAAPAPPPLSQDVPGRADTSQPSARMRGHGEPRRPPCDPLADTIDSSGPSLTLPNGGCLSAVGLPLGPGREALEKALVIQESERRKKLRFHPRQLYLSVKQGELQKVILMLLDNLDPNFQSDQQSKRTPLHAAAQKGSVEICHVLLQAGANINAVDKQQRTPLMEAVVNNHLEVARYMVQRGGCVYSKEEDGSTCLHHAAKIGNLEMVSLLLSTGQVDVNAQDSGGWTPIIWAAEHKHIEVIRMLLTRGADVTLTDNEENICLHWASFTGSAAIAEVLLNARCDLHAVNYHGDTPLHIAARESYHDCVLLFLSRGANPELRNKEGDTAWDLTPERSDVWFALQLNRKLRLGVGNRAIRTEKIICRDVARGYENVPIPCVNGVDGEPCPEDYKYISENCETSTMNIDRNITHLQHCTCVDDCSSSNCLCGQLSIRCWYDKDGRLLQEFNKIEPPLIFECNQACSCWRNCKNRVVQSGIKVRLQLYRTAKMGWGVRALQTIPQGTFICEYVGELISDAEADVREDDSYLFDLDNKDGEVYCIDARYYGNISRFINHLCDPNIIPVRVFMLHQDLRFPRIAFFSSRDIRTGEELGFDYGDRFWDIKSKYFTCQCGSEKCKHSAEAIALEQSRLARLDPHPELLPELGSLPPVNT

Compound	Potency	activity, negative = inhibition
O=C(c1cc2c(s1)-c1ccccc1S(=O)(=O)C2)N1CCN(Cc2ccccc2)CC1	inconclusive: 89.1 µM [inhibitor, single point]	
Cc1ccc([N+](=O)[O-])cc1NC(=O)Cc1cccs1	active: 44.7 µM	
CCN(CC)CCN(C(=O)CCOc1ccccc1)c1nc2c(F)cc(F)cc2s1	inconclusive: 2.24 µM [inhibitor, full curve, poor fit]	
COc1ccc(OCC(=O)NCCNC(=O)c2cccnc2)cc1	inactive	
COc1ccc(OC)c(NC(=O)c2c(NCc3ccc(N(C)C)cc3)sc3c2CCCC3)c1	active: 12.6 µM	
Cc1[nH]c2ccc(C(=O)NCCCN(C)C3CCCCC3)cc2c1C	inconclusive: 79.4 µM [inhibitor, partial curve, poor fit]	
CCOc1ccc(C(=O)N[C@H](C(=O)Nc2cccc(S(=O)(=O)N3CCOCC3)c2)C(C)C)cc1	inconclusive: 56.2 µM [inhibitor, partial curve]	
C/C(=N\Nc1nc2ccccc2[nH]1)c1ccc(N2CCOCC2)cc1	active: 50.1 µM	
CCOc1cc(/C=C2\C(=O)ON=C2C)ccc1OCc1ccccc1	active: 12.6 µM	
Cc1nc(SCc2cccnc2)[nH]c(=O)c1C	inactive	
CCc1ccc2occ(CC(=O)Nc3sc4c(c3C(=O)NCCOC)CCCC4)c2c1	inactive	
Cc1noc(-c2ccc(-c3noc(-c4cccc(Cl)c4)n3)cc2)n1	inactive	
Cc1[nH]c2ccccc2c1C(=O)CSc1nc2ccccc2c(=O)n1CCCN1CCOCC1	inconclusive: 2.24 µM [inhibitor, partial curve, poor fit]	
CC(N)=NCCCC[C@@H](N)C(=O)O	active: 10 µM	inactive: 16.5% [at 12.7 µM]
COc1ccc(NC(=O)COC(=O)c2ccc3c(c2)OCCO3)cc1OC	inconclusive: 31.6 µM [inhibitor, single point]	
Cc1cc(C)c(C)c(S(=O)(=O)N2C(=S)NC(=O)C2C(C)C)c1C (stereo not drawn)		inconclusive: -102% [inhibitor]
O=C1NN(c2ccccc2)C(=O)/C1=C/c1coc2ccccc2c1=O	inconclusive: 20 µM [inhibitor, partial curve, poor fit]	
O=C(CCc1nnc(COc2ccccc2)o1)NCc1ccc(Cl)s1	inactive	
COC(=O)C(Cc1ccccc1)NC(=O)CCCC(=O)NCc1cccc(OC)c1 (stereo not drawn)	inconclusive: 89.1 µM [inhibitor, single point]	
CCC(=O)Nc1ncc2c(n1)CC(c1ccco1)CC2=O (stereo not drawn)	inactive	
COCCNC(=O)c1c(N)sc2c1CCCC2	inconclusive: 1.12 µM [inhibitor, partial curve, poor fit]	
CC[n+]1ccccc1/C=C/c1ccc(N(C)C)cc1	active: 28.2 µM	
CCC(=O)Nc1cc(C(=O)O)ccc1Sc1ccccc1		inconclusive: -54.2% [inhibitor] [at 102 µM]
Cc1ccn2c(=O)c(NC(=O)c3cccc4ccccc34)c(C)nc2c1	inactive	

Compound	Potency	activity, negative = inhibition
CC(/C=C/C=C/c1ccccc1)=N/NC(=O)C(O)c1ccccc1 (stereo not drawn)	inconclusive: 89.1 µM [inhibitor, partial curve, poor fit]	
Cn1ccnc1C1CCCCN1C(=O)c1cc(COc2ccc(F)cc2Cl)on1 (stereo not drawn)	inconclusive: 44.7 µM [inhibitor, partial curve, poor fit]	
COc1ccc2c(c1)c(=O)c(S(=O)(=O)c1ccccc1)cn2CC(=O)Nc1ccc2c(c1)OCO2	inconclusive: 39.8 µM [inhibitor, single point]	
CCOC(=O)C1(Cc2ccccc2C)CCCN(Cc2cc(OC)c(O)c(OC)c2)C1 (stereo not drawn)	active: 44.7 µM	
Cc1ccc(/C=C/c2nc3sc(C(=O)O)c(C)c3c(=O)[nH]2)cc1[N+](=O)[O-]	active: 7.08 µM	
CC(C)C(=O)N1CCN(c2cc(N3CCN(C)CC3)c(F)cc2[N+](=O)[O-])CC1	inconclusive: 12.6 µM [inhibitor, partial curve, poor fit]	
CCOc1ccc(-n2c(C)cc(/C=N/Nc3nc(C)cc(=O)[nH]3)c2C)cc1	inconclusive: 25.1 µM [inhibitor, partial curve]	
Cc1cccc(/C=N/n2c(C)nc3ccccc3c2=O)c1	inactive	
Cc1ccccc1Nc1c(-c2ccncc2)nc2ccc(Br)cn12	inactive	
CCCn1c(=O)c2ccccc2n2c(=S)[nH]nc12	active: 3.55 µM	
O=C(Nc1ccc(F)cc1F)NC1CCN(Cc2c(F)cccc2Cl)CC1	inactive	
COC(=O)c1ccc(CSc2nc3ccccc3s2)o1	inactive	
COc1cc2ccc(=O)oc2c(O[C@@H]2O[C@H](CO)[C@@H](O)[C@H](O)[C@H]2O)c1O	inconclusive: 89.1 µM [inhibitor, single point]	
COc1ccc2nc3ccccc3nc2c1N	active: 1 µM	
COc1ccc(OC)c(/C=N/NC(=O)CNC(=O)c2cccc3ccccc23)c1	inactive	
O=C(CCCN1CCC(c2ccccc2)C1)c1ccc2c(c1)OCCO2 (stereo not drawn)	inconclusive: 89.1 µM [inhibitor, partial curve, poor fit]	
COc1ccccc1N=Nc1nc(-c2ccccc2)c(-c2ccccc2)[nH]1	inconclusive: 28.2 µM [inhibitor, single point]	
O=C(O)/C=C/C(=O)Nc1ccc(Oc2ncnc3cc(Cl)ccc23)nc1		inconclusive: -99.7% [inhibitor]
CCCc1nc2nc(C)c(NS(=O)(=O)c3ccc(C(C)(C)C)cc3)c(=O)n2[nH]1	active: 79.4 µM	
CC(=O)N1CCc2cc(S(=O)(=O)NC(Cc3ccccc3)C(=O)Nc3ccc(C)cc3C)ccc21 (stereo not drawn)	inactive	
CN1C(C(=O)NCc2ccco2)=CC(c2ccc(F)cc2)=NS1(=O)=O	inconclusive: 89.1 µM [inhibitor, single point]	
Cc1noc(NS(=O)(=O)c2ccc(NC(=O)Nc3ccc(Cl)c(Cl)c3)cc2)c1C	inconclusive: 12.6 µM [inhibitor, partial curve, poor fit]	
COc1cc(C(=O)N/C(=C/c2ccc(F)cc2)C(=O)NC(C(=O)O)c2ccccc2)cc(OC)c1OC (stereo not drawn)	inconclusive: 79.4 µM [inhibitor, single point]	
